Measurements: patent US20240358826A1 (ORIONIS BIOSCIENCES, published 2024)

T1: IL-1R (IL-1 Receptor) (UniProt P14778 18-569, limits assumed)
T1 sequence (looked up): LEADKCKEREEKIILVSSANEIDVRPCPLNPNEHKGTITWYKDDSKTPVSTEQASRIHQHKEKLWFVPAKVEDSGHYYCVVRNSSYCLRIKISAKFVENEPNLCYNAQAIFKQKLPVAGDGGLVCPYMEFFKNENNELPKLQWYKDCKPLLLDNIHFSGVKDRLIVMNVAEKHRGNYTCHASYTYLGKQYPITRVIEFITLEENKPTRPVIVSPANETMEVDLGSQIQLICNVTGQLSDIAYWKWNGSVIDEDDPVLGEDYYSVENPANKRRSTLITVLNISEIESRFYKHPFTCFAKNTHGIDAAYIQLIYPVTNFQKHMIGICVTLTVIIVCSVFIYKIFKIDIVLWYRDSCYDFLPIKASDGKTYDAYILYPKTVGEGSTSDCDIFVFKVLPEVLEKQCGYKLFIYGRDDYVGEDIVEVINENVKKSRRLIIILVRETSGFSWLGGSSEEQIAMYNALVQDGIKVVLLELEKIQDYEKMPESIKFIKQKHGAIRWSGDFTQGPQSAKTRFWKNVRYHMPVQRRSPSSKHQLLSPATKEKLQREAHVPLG


Target: T1, IL-1R (IL-1 Receptor)
Test: cell-based or functional assay

| Binder | NF-KB signal, -CD8 cells, 1 ng/ml | NF-KB signal, -CD8 cells, 10 ng/ml | NF-KB signal, -CD8 cells, 100 ng/ml | NF-KB signal, -CD8 cells, 1000 ng/ml |
| --- | --- | --- | --- | --- |
| CD8 VHH_5GGS_Fc_hole + Fc-knob_20GGS_IL1α delta 1-6_A58N (Fc fusion) chain 1: DVQLQESGGGLVQPGGSLRLSCAASGSIFSINVMGWYRQTPGKERELVAKITNFGITSYADSAQGRFTISRGNAKNTVYLQMNSLKPEDTAVYYCNLDTTGWGPPPYQYWGQGTQVTVSSGGSGGSGGSGGSGGSDKTHTCPPCPAPEAAGGPSVFLFPPKPKDTLMISRTPEVTCVVVDVSHEDPEVKFNWYVDGVEVHNAKTKPREEQYNSTYRVVSVLTVLHQDWLNGKEYKCQVSNKALPAPIEKTISKAKGQPREPQVCTLPPSRDELTKNQVSLSCAVKGFYPSDIAVEWESNGQPENNYKTTPPVLDSDGSFFLVSKLTVDKSRWQQGNVFSCSVMHEALHNHYTQKSLSLSPGK chain 2: [letters of human IgG1 Fc with changes not shown]GGSGGSGGSGGSGGSGGSGGSGGSGGSGGSGGSGGSGGSGGSGGSGGSGGSGGSGGSGGSLSNVKYNFMRIIKYEFILNDALNQSIIRANDQYLTAAALHNLDEAVKFDMGNYKSSKDDAKITVILRISKTQLYVTAQDEDQPVLLKEMPEIPKTITGSETNLLFFWETHGTKNYFTSVAHPNLFIATKQDYWVCLAGGPPSITDFQILENQA | 0.01 rel. to 100 ng/ml IL1α | 0.01 rel. to 100 ng/ml IL1α | 0.02 rel. to 100 ng/ml IL1α | 0.17 rel. to 100 ng/ml IL1α |
| CD8 VHH_5GGS_Fc_hole + Fc-knob_20GGS_IL1α delta 1-6_K60G (Fc fusion) chain 1: DVQLQESGGGLVQPGGSLRLSCAASGSIFSINVMGWYRQTPGKERELVAKITNFGITSYADSAQGRFTISRGNAKNTVYLQMNSLKPEDTAVYYCNLDTTGWGPPPYQYWGQGTQVTVSSGGSGGSGGSGGSGGSDKTHTCPPCPAPEAAGGPSVFLFPPKPKDTLMISRTPEVTCVVVDVSHEDPEVKFNWYVDGVEVHNAKTKPREEQYNSTYRVVSVLTVLHQDWLNGKEYKCQVSNKALPAPIEKTISKAKGQPREPQVCTLPPSRDELTKNQVSLSCAVKGFYPSDIAVEWESNGQPENNYKTTPPVLDSDGSFFLVSKLTVDKSRWQQGNVFSCSVMHEALHNHYTQKSLSLSPGK chain 2: [letters of human IgG1 Fc with changes not shown]GGSGGSGGSGGSGGSGGSGGSGGSGGSGGSGGSGGSGGSGGSGGSGGSGGSGGSGGSGGSLSNVKYNFMRIIKYEFILNDALNQSIIRANDQYLTAAALHNLDEAVKFDMGAYGSSKDDAKITVILRISKTQLYVTAQDEDQPVLLKEMPEIPKTITGSETNLLFFWETHGTKNYFTSVAHPNLFIATKQDYWVCLAGGPPSITDFQILENQA | 0.02 rel. to 100 ng/ml IL1α | 0.02 rel. to 100 ng/ml IL1α | 0.13 rel. to 100 ng/ml IL1α | 0.79 rel. to 100 ng/ml IL1α |
| CD8 VHH_5GGS_Fc_hole + Fc-knob_20GGS_IL1α delta 1-6_A58F (Fc fusion) chain 1: DVQLQESGGGLVQPGGSLRLSCAASGSIFSINVMGWYRQTPGKERELVAKITNFGITSYADSAQGRFTISRGNAKNTVYLQMNSLKPEDTAVYYCNLDTTGWGPPPYQYWGQGTQVTVSSGGSGGSGGSGGSGGSDKTHTCPPCPAPEAAGGPSVFLFPPKPKDTLMISRTPEVTCVVVDVSHEDPEVKFNWYVDGVEVHNAKTKPREEQYNSTYRVVSVLTVLHQDWLNGKEYKCQVSNKALPAPIEKTISKAKGQPREPQVCTLPPSRDELTKNQVSLSCAVKGFYPSDIAVEWESNGQPENNYKTTPPVLDSDGSFFLVSKLTVDKSRWQQGNVFSCSVMHEALHNHYTQKSLSLSPGK chain 2: [letters of human IgG1 Fc with changes not shown]GGSGGSGGSGGSGGSGGSGGSGGSGGSGGSGGSGGSGGSGGSGGSGGSGGSGGSGGSGGSLSNVKYNFMRIIKYEFILNDALNQSIIRANDQYLTAAALHNLDEAVKFDMGFYKSSKDDAKITVILRISKTQLYVTAQDEDQPVLLKEMPEIPKTITGSETNLLFFWETHGTKNYFTSVAHPNLFIATKQDYWVCLAGGPPSITDFQILENQA | 0.01 rel. to 100 ng/ml IL1α | 0.02 rel. to 100 ng/ml IL1α | 0.11 rel. to 100 ng/ml IL1α | 0.69 rel. to 100 ng/ml IL1α |

Next, values leading:

| NF-KB signal, -CD8 cells, 1 ng/ml | NF-KB signal, -CD8 cells, 10 ng/ml | NF-KB signal, -CD8 cells, 100 ng/ml | NF-KB signal, -CD8 cells, 1000 ng/ml | Binder |
| --- | --- | --- | --- | --- |
| 0.01 rel. to 100 ng/ml IL1α | 0.01 rel. to 100 ng/ml IL1α | 0.09 rel. to 100 ng/ml IL1α | 0.78 rel. to 100 ng/ml IL1α | CD8 VHH_5GGS_Fc_hole + Fc-knob_20GGS_IL1α delta 1-6_A58S (Fc fusion) chain 1: DVQLQESGGGLVQPGGSLRLSCAASGSIFSINVMGWYRQTPGKERELVAKITNFGITSYADSAQGRFTISRGNAKNTVYLQMNSLKPEDTAVYYCNLDTTGWGPPPYQYWGQGTQVTVSSGGSGGSGGSGGSGGSDKTHTCPPCPAPEAAGGPSVFLFPPKPKDTLMISRTPEVTCVVVDVSHEDPEVKFNWYVDGVEVHNAKTKPREEQYNSTYRVVSVLTVLHQDWLNGKEYKCQVSNKALPAPIEKTISKAKGQPREPQVCTLPPSRDELTKNQVSLSCAVKGFYPSDIAVEWESNGQPENNYKTTPPVLDSDGSFFLVSKLTVDKSRWQQGNVFSCSVMHEALHNHYTQKSLSLSPGK chain 2: [letters of human IgG1 Fc with changes not shown]GGSGGSGGSGGSGGSGGSGGSGGSGGSGGSGGSGGSGGSGGSGGSGGSGGSGGSGGSGGSLSNVKYNFMRIIKYEFILNDALNQSIIRANDQYLTAAALHNLDEAVKFDMGSYKSSKDDAKITVILRISKTQLYVTAQDEDQPVLLKEMPEIPKTITGSETNLLFFWETHGTKNYFTSVAHPNLFIATKQDYWVCLAGGPPSITDFQILENQA |
| 0.01 rel. to 100 ng/ml IL1α | 0.02 rel. to 100 ng/ml IL1α | 0.03 rel. to 100 ng/ml IL1α | 0.28 rel. to 100 ng/ml IL1α | CD8 VHH_5GGS_Fc_hole + Fc-knob_20GGS_IL1α delta 1-6_A58H (Fc fusion) chain 1: DVQLQESGGGLVQPGGSLRLSCAASGSIFSINVMGWYRQTPGKERELVAKITNFGITSYADSAQGRFTISRGNAKNTVYLQMNSLKPEDTAVYYCNLDTTGWGPPPYQYWGQGTQVTVSSGGSGGSGGSGGSGGSDKTHTCPPCPAPEAAGGPSVFLFPPKPKDTLMISRTPEVTCVVVDVSHEDPEVKFNWYVDGVEVHNAKTKPREEQYNSTYRVVSVLTVLHQDWLNGKEYKCQVSNKALPAPIEKTISKAKGQPREPQVCTLPPSRDELTKNQVSLSCAVKGFYPSDIAVEWESNGQPENNYKTTPPVLDSDGSFFLVSKLTVDKSRWQQGNVFSCSVMHEALHNHYTQKSLSLSPGK chain 2: [letters of human IgG1 Fc with changes not shown]GGSGGSGGSGGSGGSGGSGGSGGSGGSGGSGGSGGSGGSGGSGGSGGSGGSGGSGGSGGSLSNVKYNFMRIIKYEFILNDALNQSIIRANDQYLTAAALHNLDEAVKFDMGHYKSSKDDAKITVILRISKTQLYVTAQDEDQPVLLKEMPEIPKTITGSETNLLFFWETHGTKNYFTSVAHPNLFIATKQDYWVCLAGGPPSITDFQILENQA |
| 0.03 rel. to 100 ng/ml IL1α | 0.02 rel. to 100 ng/ml IL1α | 0.05 rel. to 100 ng/ml IL1α | 0.45 rel. to 100 ng/ml IL1α | CD8 VHH_5GGS_Fc_hole + Fc-knob_20GGS_IL1α delta 1-6_K60A (Fc fusion) chain 1: DVQLQESGGGLVQPGGSLRLSCAASGSIFSINVMGWYRQTPGKERELVAKITNFGITSYADSAQGRFTISRGNAKNTVYLQMNSLKPEDTAVYYCNLDTTGWGPPPYQYWGQGTQVTVSSGGSGGSGGSGGSGGSDKTHTCPPCPAPEAAGGPSVFLFPPKPKDTLMISRTPEVTCVVVDVSHEDPEVKFNWYVDGVEVHNAKTKPREEQYNSTYRVVSVLTVLHQDWLNGKEYKCQVSNKALPAPIEKTISKAKGQPREPQVCTLPPSRDELTKNQVSLSCAVKGFYPSDIAVEWESNGQPENNYKTTPPVLDSDGSFFLVSKLTVDKSRWQQGNVFSCSVMHEALHNHYTQKSLSLSPGK chain 2: [letters of human IgG1 Fc with changes not shown]GGSGGSGGSGGSGGSGGSGGSGGSGGSGGSGGSGGSGGSGGSGGSGGSGGSGGSGGSGGSLSNVKYNFMRIIKYEFILNDALNQSIIRANDQYLTAAALHNLDEAVKFDMGAYASSKDDAKITVILRISKTQLYVTAQDEDQPVLLKEMPEIPKTITGSETNLLFFWETHGTKNYFTSVAHPNLFIATKQDYWVCLAGGPPSITDFQILENQA |
| 0.02 rel. to 100 ng/ml IL1α | 0.02 rel. to 100 ng/ml IL1α | 0.05 rel. to 100 ng/ml IL1α | 0.64 rel. to 100 ng/ml IL1α | CD8 VHH_5GGS_Fc_hole + Fc-knob_20GGS_IL1α delta 1-6_A58T (Fc fusion) chain 1: DVQLQESGGGLVQPGGSLRLSCAASGSIFSINVMGWYRQTPGKERELVAKITNFGITSYADSAQGRFTISRGNAKNTVYLQMNSLKPEDTAVYYCNLDTTGWGPPPYQYWGQGTQVTVSSGGSGGSGGSGGSGGSDKTHTCPPCPAPEAAGGPSVFLFPPKPKDTLMISRTPEVTCVVVDVSHEDPEVKFNWYVDGVEVHNAKTKPREEQYNSTYRVVSVLTVLHQDWLNGKEYKCQVSNKALPAPIEKTISKAKGQPREPQVCTLPPSRDELTKNQVSLSCAVKGFYPSDIAVEWESNGQPENNYKTTPPVLDSDGSFFLVSKLTVDKSRWQQGNVFSCSVMHEALHNHYTQKSLSLSPGK chain 2: [letters of human IgG1 Fc with changes not shown]GGSGGSGGSGGSGGSGGSGGSGGSGGSGGSGGSGGSGGSGGSGGSGGSGGSGGSGGSGGSLSNVKYNFMRIIKYEFILNDALNQSIIRANDQYLTAAALHNLDEAVKFDMGTYKSSKDDAKITVILRISKTQLYVTAQDEDQPVLLKEMPEIPKTITGSETNLLFFWETHGTKNYFTSVAHPNLFIATKQDYWVCLAGGPPSITDFQILENQA |
